# Reference: the supplement of paper PMC3334620
# The full ranking holds about 33,000 sequences; the median of “E-score (-0.5 to 0.5)” is about -0.056, and the highest 2% start at about 0.38. The list shows a part of the results.
# Biological target: Stb4 (UniProt P50104)
# Test: PBM E-score (8-mer binding enrichment) (E-score (-0.5 to 0.5)); higher = stronger / more preferred TF binding; most listed sequences are background and not binding sites
# Conditions: protein concentration: 200 nM; construct: GST-DNA-binding domain
# Procedure: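 Universal 'all 10-mer' protein binding microarrays (Agilent AMADID 015681) probed with GST-tagged S. cerevisiae TFs (full-length or DBD) made by in vitro transcription/translation (PURExpress), about 100-200 nM. Bound TF was detected with fluorescent anti-GST. Each ungapped 8-mer (which stands for itself and its reverse complement) is scored by the PBM enrichment score (E-score), a modified Wilcoxon-Mann-Whitney statistic from -0.5 to +0.5, computed with the Universal PBM Analysis Suite. Scale: above 0.35 generally sequence-specific binding.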
row,Sequence,PBM E-score
1,AGCGACTG,-0.244
2,ACACAGCA,-0.223
3,CACCGCGC,-0.205
4,AAGTTTAG,-0.0741
5,AGGGTTTG,0.0369
6,ATCACACG,-0.0114
7,ATTCTGAA,-0.0395
8,CGGTTTGA,0.0261
9,AGATTCTC,0.0482
10,AACAATAG,-0.192
11,CTGATCAG,-0.0422
12,CGTATCAA,-0.0516
13,GCACTTGA,-0.167
14,ATCACGAC,-0.123
15,TGATTCCA,-0.116
16,ACACCTTA,-0.186
17,ATGCGCTC,-0.116
18,CACATGTC,-0.103
19,ATTGTCGA,-0.0736
20,ACATAAGA,-0.0778
21,AATGCAGG,-0.0758
22,AACAGACA,0.0223
23,AACAGCAG,-0.134
24,AGATGCAA,-0.386
25,CAATTCCG,0.372

row,Sequence,PBM E-score
1,GACAGACC,-0.0234
2,AGAGTCCT,-0.165
3,GATCCTGC,-0.148
4,CACTTATG,0.0528
5,GACCCAGA,0.0584
6,CCCGAAGC,0.371
7,TACTGCCA,-0.111
8,TCTTCTCA,-0.00347
9,CGCGGGAG,0.172
10,ATTAAAAC,0.0963
11,GCGCCAAC,-0.121
12,ACCAGAGT,-0.324
13,ATGCGCCG,0.244
14,CAGGAGCC,-0.0422
15,AGTGCGCA,0.0691
16,ACTACGAT,-0.0781
17,AGGTTGGC,-0.205
18,GTGGCACA,-0.176
19,AGTGTACC,-0.0875
20,CTGGTTCC,0.147
21,GCCGGCGC,0.317
22,CTTTTTTC,-0.0005
23,CCGATGAA,0.33
24,TAGCCCGA,0.245
25,GGCTGACC,-0.0737

row,Sequence,PBM E-score
1,ATAGGCGA,-0.0411
2,CGTTAGTA,-0.0234
3,GATAACCA,-0.0419
4,AACAATCG,-0.0575
5,CGGTCTAC,-0.0166
6,TCGGAGAA,0.368
7,ACTGGGGC,-0.0477
8,CGACGAGC,-0.0324
9,CCTTAAGC,-0.0576
10,AGGACATG,-0.179
11,TCGAGCAA,-0.141
12,ACAGTAAC,-0.106
13,CCCCTAGC,-0.167
14,GGCACGCA,0.0767
15,CACTGCTA,-0.267
16,ACGCGGGG,0.124
17,CGTCCGAG,0.257
18,AACTAGTG,-0.171
19,AGACCTAG,-0.151
20,AGTCGGGG,0.205
21,CAATCCTA,-0.156
22,ACTAAGTA,-0.181
23,AGGTATGC,-0.11
24,AAGGGCGC,-0.171
25,CCGGCCAC,0.227

row,Sequence,PBM E-score
1,CATCTACC,0.128
2,ATAGTGCG,0.0217
3,AACACGGA,0.283
4,CGGACTTA,0.124
5,GCAGGCGA,-0.271
6,GACAGGTC,-0.188
7,TAAATAAA,0.0338
8,CAGCGTTA,-0.196
9,CTATTTGA,0.0111
10,AACTAGGA,0.0198
11,CCCACCCA,-0.0328
12,TAATGTCA,-0.012
13,GAAGATAC,0.169
14,AGTATTAT,-0.393
15,AACTATGG,-0.183
16,GCTAGGCC,-0.133
17,AGAACTTC,0.0283
18,CAAAAATG,-0.0968
19,AAAGGTTG,-0.0423
20,CCTGACGC,-0.0704
21,AGGACAGG,-0.228
22,TATGTCGA,-0.143
23,CTCGTTAC,-0.268
24,AAATACGT,-0.245
25,CTCTGCGA,-0.308

row,Sequence,PBM E-score
1,AACGAACG,-0.0822
2,CTTGTCTA,-0.116
3,AAGGCTCC,-0.0902
4,CCGACCCC,0.214
5,AGATCCCA,-0.0953
6,AGACGCTC,-0.153
7,CTATCACC,0.00312
8,CTTCTTGA,-0.164
9,CTTTACAA,-0.0169
10,ACCAGAGA,-0.352
11,GTTAACGA,-0.133
12,ACTGGACG,-0.0457
13,CAGCTGGA,-0.174
14,GGCGAATA,0.0785
15,GCACTAAA,0.00591
16,GGAGTCAA,0.175
17,AGATTGTC,0.153
18,CCGCTCGC,0.205
19,CAATGCTA,-0.0921
20,CGTTTGCA,0.0158
21,CTGTCGAA,-0.0969
22,CAAGGAAC,0.0878
23,AGGCCAAA,-0.106
24,GCTTAAGA,-0.0785
25,AAGATTCG,0.0909

row,Sequence,PBM E-score
1,AAAGCAAG,0.149
2,AGTGATAA,-0.144
3,AGCTAACG,-0.108
4,CTCAAGGA,-0.0981
5,AAGCGCTG,-0.0331
6,AAGACCTC,-0.0836
7,TCAGCCGA,0.385
8,ACCCATAG,-0.221
9,CTGTTACA,-0.0408
10,CCTCGCTA,-0.29
11,GCAGGACA,0.0224
12,ACCCGTTA,0.269
13,AAATAAGA,0.0469
14,ATATAAGA,-0.0688
15,ACTGCCGC,0.203
16,AGTAAAAC,-0.181
17,CGTGCATC,-0.0996
18,ATCGTAAG,-0.229
19,CCCGCGAA,0.128
20,GAAGATCC,0.303
21,AACGTTTG,-0.0719
22,CAGCTAGA,-0.308
23,AGATAACA,-0.22
24,GTGCTCTA,-0.212
25,CATAGAAC,0.0297

row,Sequence,PBM E-score
1,TCAGGCAA,-0.234
2,ATGCAGAC,-0.0485
3,CCCATGAA,-0.212
4,CGGAGCTC,0.193
5,CTTCCAAA,-0.174
6,ACTTAGAT,-0.023
7,GGACATAC,0.0378
8,CCTTTTAC,-0.0692
9,AACAAATG,0.0077
10,AGTCTGCA,-0.142
11,ATCATATG,-0.052
12,AAGTCTGG,-0.28
13,CAGCAGCA,-0.258
14,GATAACGA,-0.0372
15,GACTCGCA,-0.0572
16,ATGTAGAG,-0.17
17,ATCCATCG,-0.0113
18,CACAATGA,-0.213
19,CAAAATTG,-0.127
20,CCCTCTAG,-0.279
21,CCGATACA,0.257
22,CCCTCTGC,-0.325
